From the RNAGym collection of RNA variant scans (doi:10.1073/pnas.2313332121)
Variants at the floor of the assay are shown more often than the library holds them.

B1: TPR 5TU (parent)
chain: GGAUCUUCUCGAUCUAACAAAAAAGACAAAUCUGCCACAAAGCUUGAGAGCAUCUUCGGAUGCAGAGGCGGCAGCCUUCGGUGGCGCGAUAGCGCCAACGUUCUCAACUAUGACACGCAAAACGCGUGCUCCGUUGAAUGGAGUUUAUCAUG

Variants of: B1
Experiment: polymerase ribozyme fitness, log enrichment relative to wild type (log ratio); higher = more active; in vitro selection for triplet polymerase activity
Outline: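 Libraries of mutants in each subunit of a heterodimeric triplet polymerase ribozyme were generated by PCR and transcribed. In triplicate, each went through one in vitro selection round: annealing with biotinylated primer, partner subunit and triplets; frozen incubation at −7 °C; gel excision of extended constructs; streptavidin-bead capture; RT-PCR. Fitness, taken from Illumina sequencing of input and output libraries, is the logarithm of a genotype's enrichment over wild-type enrichment, averaged across replicates with inverse-variance weights. The logarithm is base 2, and genotypes needed ≥10 input reads and ≥1 read per output to be kept.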

Polymerase ribozyme fitness (log ratio), -2.73:
C18G U45A A121U

Polymerase ribozyme fitness (log ratio), -2.28:
A19C G86C C99U

Polymerase ribozyme fitness (log ratio), ≤ -4.2:
A19U A47G U53G G67C C99U A142C A147C
A19U A29U A39G U44G C85U G143U
A19G C87G
C18G G42A C54U G94A
A19G G25C C38U G84U G128A
A20C A52U C85U U109G U127G
A20C A21U C54U U55A C76G
C18A G84A U101A C103G G140A U146A A150G
C18U A22C U53G C72U C87U C105U C108G
A19G C32G G59U A73U G86A C125A
A19U A20U C35U G59C U77C C118U C123U G141A U151G
A19G A21C A30U C38G A41C G48A U77G C93G C114G
C18U U53A U56A G62A C63U A89U C93U U102C
C18G A39G G65C G141C
A19G C87A A98G
A19U A49C C69U U77G C79A G84A C99A A113C C114G A142C
C18G C36G U78A C85A
A19U A23U C27A U56A G100A
A20C A29G A121G
A19G G50U G83A A115C G141C
C18A G70C C87G C93A
A19U A49G G83U A91U C116A G140C
A19G C35G U55A G58A A60C C85U G140C
A19U A28G C36G G59A C96A
A20C A23C A37G
C18G G84A A106C U109G A137G A150C
A20C G34U C54U G84C U139A
A19G A20U A41G U45A C57U A113G C114U
A19C G50A A52C G65U C99U U148G
C18A A37C G88A C93U
C18U C57G U61A C87U A89U C116U C118G A122G U139A
C18U G50A G84A U104G A122U G133U G141C
A19G G92A U127G U130G
A20C A30G C36U U56A G62U C93A C103A G133A U148A
A20C A30G U53A C105U
A19C A115U C118G C129U A142U
C18G U31A U33G G58A U61G U101A C103G A120C
A20C A26U C38U G92U C99G U102G
C18U C38U A49C C93G C125A G140C U145A
A20C A28U C54U C85G U104G U151G
A19C A52C U56A C72U G86U A91U G126A
A19C A52G G88A A106G U139A
A19U A37C U56C G84C G86A A91C C108A A120C
A19U U31A G58C C63U G70C C95U C131G G152U
C18G C54G U56A G67U C85A C108G
A19C C43U C85U G136U
C18U A20C U55A G83C C87G A142C A147C
A19C U56A G92A G133U A147U
A19C G34A A39C G67A G86A
C18U G25U C35A A113C A119C
A19G A28U A40C A60C G71U C75A G86U
A20C C54G C76U G86C C87A A122C
C18U A24U A28C C35A C38G C79G G84C C116A C123G U144C
A20C A39G A40U C85A
A19C A37C A40G G84C G140U
A19U C51U C54U G84U G143C
C18G A20U A22G A26C G50A U55A C95U
A19U U61A G86U A107G A115U G152U
C18G A22C C79U C93A
A19C A41C G48C C87U A91C A115C A122U G136C U145A
C18U A20U G25U G34A G92C
A19G G50A C54A G83U C116U C123U
A20C A29U U82C
A19C U31G A39C A64G
A19U A66C C96U U145G
A19U A23C A29G G83C A97U C103G U139C
A20C U44A C63U A66U G80C
A19C G58C C87A C95A A98G
C18G U53G G94A C96A
A20C C54G G70C U77C
A20C G46C C63U C108U C114G
A20C G70C G81U C87U C93U C103A

Polymerase ribozyme fitness (log ratio), -1.94:
A19U A21G U45G U56A G92U

Polymerase ribozyme fitness (log ratio), -4.06:
A20C C36A

Polymerase ribozyme fitness (log ratio), -1.23:
A19C C51U A52G G84U A89U G124U G141U

Polymerase ribozyme fitness (log ratio), -4.01:
A20C A40G A52G C85A A98G

Polymerase ribozyme fitness (log ratio), -1.93:
C18G G84U

Polymerase ribozyme fitness (log ratio), -1.81:
A19U C105G

Polymerase ribozyme fitness (log ratio), -0.92:
A19G A40C C93U

Polymerase ribozyme fitness (log ratio), -0.609:
A19U C123U

Polymerase ribozyme fitness (log ratio), -3.04:
C18U C51U U53A G83A

Polymerase ribozyme fitness (log ratio), -1.92:
C18U A37U U144A
